Experimental findings from a collection of fitness landscapes (doi:10.1126/science.1257360) are described below.

The other results are listed elsewhere or left out.

B1: PhoQ; a variant is named by its letters at X, in order, P23837 (parent)
chain: MKKLLRLFFPLSLRVRFLLATAAVVLVLSLAYGMVALIGYSVSFDKTTFRLLRGESNLFYTLAKWENNKLHVELPENIDKQSPTMTLIYDENGQLLWAQRDVPWLMKMIQPDWLKSNGFHEIEADVNDTSLLLSGDHSIQQQLQEVREDDDDAEMTHSVAVNVYPATSRMPKLTIVVVDTIPVELKSSYMVWSWFIYVLSANLLLVIPLLWVAAWWSLRPIEALAKEVRELEEHNRELLNPATTRELTSLVRNLNRLLKSERERYDKYRTTLTDLTHSLKTPLXXLQXXLRSLRSEKMSVSDAEPVMLEQISRISQQIGYYLHRASMRGGTLLSRELHPVAPLLDNLTSALNKVYQRKGVNISLDISPEISFVGEQNDFVEVMGNVLDNACKYCLEFVEISARQTDEHLYIVVEDDGPGIPLSKREVIFDRGQRVDTLRPGQGVGLAVAREITEQYEGKIVAGESMLGGARMEVIFGRQHSAPKDE

In the test the parent is B1. In words: enrichment ratio after two sorts for PhoP signalling (ratio (wild type AVST 3.29)); higher = more functional. The note with it: with PhoP (E. coli).
Regarding FACF, the enrichment ratio is ≤ 0.25.
Then GMSH, with ≤ 0.25.
For QDRV the value was ≤ 0.25; for NQPP, ≤ 0.25; for PMSR, ≤ 0.25.
Then NTTY, with 1.06.
Consider IPKV, for which the enrichment ratio was ≤ 0.25.
Then DHVA, with ≤ 0.25.
For EGLH the value was ≤ 0.25.
Then FVWQ, with ≤ 0.25.
With YRRA, the enrichment ratio was ≤ 0.25.
For VCYD the value was ≤ 0.25.
Then DNCM, with ≤ 0.25; and KGEN, with ≤ 0.25.
For DANE the value was ≤ 0.25.
As to IMPW, the enrichment ratio was ≤ 0.25.
Turning to HKNM, the enrichment ratio was ≤ 0.25.
Then MQHE, with ≤ 0.25; and LKNL, with ≤ 0.25; and HTPW, with ≤ 0.25.
As to WNNP, the enrichment ratio was ≤ 0.25.
For KCSN the value was ≤ 0.25; for DTWK, ≤ 0.25.
Then SKEE, with ≤ 0.25; and WSPI, with ≤ 0.25; and KGHC, with ≤ 0.25.
Then QLHW, with ≤ 0.25.
For the variant AGFG, the enrichment ratio is ≤ 0.25.
For KKCH the value was ≤ 0.25; for VKQQ, ≤ 0.25.
For GWSG the value was ≤ 0.25.
Then DCLR, with ≤ 0.25; and WTVS, with ≤ 0.25.
On to FSVL, for which the enrichment ratio is 11.7.
For INVV the value was ≤ 0.25.
Turning to VMSV, the enrichment ratio is ≤ 0.25.
Take EDNP: the enrichment ratio is ≤ 0.25.
Consider DWCP, for which the enrichment ratio was ≤ 0.25.
For DVCY the value was ≤ 0.25; for YCIN, ≤ 0.25; for MHSP, ≤ 0.25.
Then FAFN, with ≤ 0.25; and HVRS, with ≤ 0.25.
For ASQY the value was ≤ 0.25; for QYTH, ≤ 0.25; for RPKN, ≤ 0.25.
GWFD: the enrichment ratio was ≤ 0.25.
For SKKW the value was ≤ 0.25.
Then PSNE, with ≤ 0.25; and PLGE, with ≤ 0.25; and ADTA, with ≤ 0.25.
Then LACM, with ≤ 0.25; and SAFQ, with 2.84; and HDCS, with ≤ 0.25.
HQIA: the enrichment ratio was ≤ 0.25.
In the case of RDYK, the enrichment ratio was ≤ 0.25.
Then FHYS, with ≤ 0.25; and VQSL, with ≤ 0.25; and KGCA, with ≤ 0.25.
Then AYGF, with ≤ 0.25; and SGTV, with 9.21.
Turning to QKPG, the enrichment ratio was ≤ 0.25.
As to ARDP, the enrichment ratio was ≤ 0.25.
Then FFVC, with ≤ 0.25; and EMAV, with ≤ 0.25; and MTLF, with 9.13.
For NYSS the value was ≤ 0.25; for YSTK, ≤ 0.25.
Then PCGS, with ≤ 0.25; and IMPP, with ≤ 0.25.
With KLTG, the enrichment ratio is ≤ 0.25.
Consider FEYH, for which the enrichment ratio was ≤ 0.25.
For ETMC the value was ≤ 0.25.
Then LSWW, with ≤ 0.25; and DLQF, with ≤ 0.25.
Then RSLH, with ≤ 0.25; and TVYC, with ≤ 0.25; and PTST, with ≤ 0.25.
Turning to PLHH, the enrichment ratio is ≤ 0.25.
With MQLP, the enrichment ratio was ≤ 0.25.
Regarding KNWC, the enrichment ratio is ≤ 0.25.
Then RVHS, with ≤ 0.25.
For ASME the value was 10.8.
AGKN: the enrichment ratio was ≤ 0.25.
Then SGVI, with 9.24.
In the case of YLKK, the enrichment ratio is ≤ 0.25.
Then LRMM, with ≤ 0.25.
Then FARR, with ≤ 0.25.
In the case of GTAG, the enrichment ratio was ≤ 0.25.
For TEAG the value was 19.7; for PCNY, ≤ 0.25.
For KDSV the value was ≤ 0.25.
In the case of NFSV, the enrichment ratio was found to be 0.634.
Then RPIP, with ≤ 0.25; and ARWC, with ≤ 0.25.
Then FMPG, with ≤ 0.25; and GDYH, with ≤ 0.25; and VQPH, with ≤ 0.25.
For VGQN the value was ≤ 0.25.
As for HMRG, the enrichment ratio was ≤ 0.25.
Then HRHQ, with ≤ 0.25; and REDP, with ≤ 0.25.
As for GPVQ, the enrichment ratio was ≤ 0.25.
In the case of TDIW, the enrichment ratio was ≤ 0.25.
Then GFRW, with ≤ 0.25; and WSSS, with ≤ 0.25; and AEPD, with ≤ 0.25.
For the variant QRHW, the enrichment ratio was ≤ 0.25.
With MTMR, the enrichment ratio is ≤ 0.25.
In the case of YWMV, the enrichment ratio is ≤ 0.25.
For AFCR the value was ≤ 0.25; for GMIF, ≤ 0.25; for EGIN, ≤ 0.25.
Then RGGN, with ≤ 0.25.
For the variant QRER, the enrichment ratio is ≤ 0.25.
For LTIW the value was ≤ 0.25.
For EHHC the value was ≤ 0.25; for VAGK, ≤ 0.25.
Then SWSW, with ≤ 0.25; and KYSQ, with ≤ 0.25; and QCAK, with ≤ 0.25.
WDNL: the enrichment ratio was ≤ 0.25.
Then STRV, with ≤ 0.25; and KYWR, with ≤ 0.25; and GHSP, with ≤ 0.25.
For TWRH the value was ≤ 0.25.
Then PICH, with ≤ 0.25; and HETA, with ≤ 0.25; and YCKP, with ≤ 0.25.
As to PVRG, the enrichment ratio is ≤ 0.25.
Then NHHH, with ≤ 0.25.
Then GSTA, with 0.871; and NWFW, with ≤ 0.25.
For YHEY the value was ≤ 0.25.
On to QENL, for which the enrichment ratio was ≤ 0.25.
Consider VHNS, for which the enrichment ratio was ≤ 0.25.
Turning to RDWH, the enrichment ratio is ≤ 0.25.
For DYNN, the enrichment ratio is ≤ 0.25.
WIDF: the enrichment ratio is ≤ 0.25.
Then VFEM, with ≤ 0.25.
Then HKYC, with ≤ 0.25; and NDNM, with ≤ 0.25; and VNQI, with ≤ 0.25.
As for MQSS, the enrichment ratio was ≤ 0.25.
Consider SWIC, for which the enrichment ratio is ≤ 0.25.
For AHIL the value was ≤ 0.25; for IAGV, ≤ 0.25.
On to HKIN, for which the enrichment ratio was ≤ 0.25.
For VLQD the value was ≤ 0.25; for HWDF, ≤ 0.25; for VMFT, ≤ 0.25.
Take SRST: the enrichment ratio is ≤ 0.25.
For RACE the value was ≤ 0.25.
